Measurements as given in a compilation of properties of binary mixtures (doi:10.1016/j.jct.2020.106232).
Some of these densities may be calculated back from excess volumes.

Test: xn = mol fraction of the nth substance listed
Conditions: 100 kPa

CCCC[n+]1ccn(C)c1.O=[N+]([O-])[O-] + CCCCCO
mass density (293.15 K, x1 = 0.0824): 859.7 kg/m3 | mass density (293.15 K, x1 = 0.1538): 895.2 kg/m3 | mass density (293.15 K, x1 = 0.2318): 930.5 kg/m3 | mass density (293.15 K, x1 = 0.3425): 975.5 kg/m3 | mass density (293.15 K, x1 = 0.6481): 1075.1 kg/m3 | mass density (293.15 K, x1 = 0.8416): 1124.1 kg/m3 | mass density (293.15 K, x1 = 0.9415): 1146.2 kg/m3 | mass density (293.15 K, x1 = 1): 1158.3 kg/m3 | mass density (303.15 K, x1 = 0.0824): 852.7 kg/m3 | mass density (303.15 K, x1 = 0.1538): 888.4 kg/m3 | mass density (303.15 K, x1 = 0.2318): 923.8 kg/m3 | mass density (303.15 K, x1 = 0.3425): 968.9 kg/m3 | mass density (303.15 K, x1 = 0.4363): 1003 kg/m3 | mass density (303.15 K, x1 = 0.5668): 1045.3 kg/m3 | mass density (303.15 K, x1 = 0.6481): 1068.9 kg/m3 | mass density (303.15 K, x1 = 0.7481): 1095.5 kg/m3 | mass density (303.15 K, x1 = 0.8416): 1118.1 kg/m3 | mass density (303.15 K, x1 = 0.9415): 1140.3 kg/m3 | mass density (303.15 K, x1 = 1): 1152.3 kg/m3 | mass density (313.15 K, x1 = 0.0824): 845.6 kg/m3 | mass density (313.15 K, x1 = 0.1538): 881.5 kg/m3 | mass density (313.15 K, x1 = 0.2318): 917.1 kg/m3 | mass density (313.15 K, x1 = 0.3425): 962.3 kg/m3 | mass density (313.15 K, x1 = 0.4363): 996.5 kg/m3 | mass density (313.15 K, x1 = 0.5668): 1039 kg/m3 | mass density (313.15 K, x1 = 0.7481): 1089.5 kg/m3 | mass density (313.15 K, x1 = 1): 1146.5 kg/m3 | mass density (323.15 K, x1 = 0.1538): 875 kg/m3 | mass density (323.15 K, x1 = 0.2318): 910.7 kg/m3 | mass density (323.15 K, x1 = 0.3425): 956.1 kg/m3 | mass density (323.15 K, x1 = 0.4363): 990.6 kg/m3 | mass density (323.15 K, x1 = 0.5668): 1033.3 kg/m3 | mass density (323.15 K, x1 = 0.6481): 1057.2 kg/m3 | mass density (323.15 K, x1 = 0.7481): 1084.1 kg/m3 | mass density (323.15 K, x1 = 0.8416): 1107.1 kg/m3 | mass density (323.15 K, x1 = 1): 1141.2 kg/m3

CCCCCO + CCCC[n+]1ccn(C)c1.O=[N+]([O-])[O-]
mass density (293.15 K, x2 = 0): 814.5 kg/m3 | mass density (303.15 K, x2 = 0): 807.1 kg/m3 | mass density (313.15 K, x2 = 0): 799.6 kg/m3 | mass density (323.15 K, x2 = 0): 792 kg/m3
